Results: PubChem BioAssay AID686979 (National Center for Advancing Translational Sciences (NCATS), 2013)
Screen size: about 420,000 compounds; about 50,000 (12%) were called active. Inconclusive means that the source gave no clear call. Such entries were picked first, then a sample of the others. The call rests on the fitted dose curve; in most records, active means well fitted inhibition curve with a large enough effect; inconclusive means small, poorly fitted or top-dose-only effect; inactive means flat fitted curve, though single readings scatter. No potency is given beside an inconclusive call; the fits are too rough.

Experiment: qHTS for Inhibitors of human tyrosyl-DNA phosphodiesterase 1 (TDP1): qHTS in cells in presence of CPT; further: nearly all actives have a fitted effect of over 55% in size
Conditions: chicken DT40 Tdp1-/-;hTDP1 cells + 20 nM CPT, ATP luminescence, 48 h; activity change, negative = growth inhibition: at 46.2 µM (top of the series) unless noted
Method in brief: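 Chicken DT40 Tdp1-/- cells complemented with human TDP1, 400 cells/well, exposed to compounds plus 20 nM camptothecin for at least 48 h at 37 C; viability read as ATP content by CellTiter-Glo luminescence.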
On the % scale 0 is the no-effect control and ±100 the full control effect; potency means the concentration at half of the fitted maximal effect; tags describe the fitted curve by direction and shape.

SMILES | Potency | activity change, negative = growth inhibition
O=C(Nc1nc2ccccc2s1)C1CCN(C(=O)c2ccco2)CC1 | inconclusive [inhibitor, partial curve] | –
O=C(Nn1c(-c2ccc(Cl)cc2)nc2ccccc2c1=O)c1cccnc1Cl | inactive | –
O=C(NCCCN1CCOCC1)c1ccc(Cl)cc1 | inactive | –
Cc1ccc(NC(=O)C2(C)CCN2C2Cc3ccccc3C2)cc1 (stereo not given) | inconclusive [inhibitor, single point] | –
CC(=O)C1=CCC(c2ccccc2)N(S(=O)(=O)c2ccccc2C)C1 (stereo not given) | inconclusive [inhibitor, single point] | –
Cn1c(=O)c2sccc2n2c(CCCC(=O)Nc3ccc(Oc4ccc(Cl)cc4)cc3)nnc12 | inconclusive [inhibitor, partial curve, poor fit] | –
Cc1cccc(NC(=O)c2cc3ccccc3oc2=O)c1 | inactive | –
Cc1ccc(N(CC(=O)N2CCc3ccccc32)S(=O)(=O)c2cccs2)cc1 | inconclusive [inhibitor, single point] | –
CCOC(=O)N1CCN(c2c(-c3ccc(C)cc3)c(=O)c2=O)CC1 | inconclusive [inhibitor, single point] | –
CCc1ccc(-n2c(=O)c3c(C)c(C(=O)N(C)C)sc3n(Cc3ccccc3F)c2=O)cc1 | inactive | –
CN(C)S(=O)(=O)c1ccc(N2CCCC2)c(C(=O)NC(c2ccccc2)c2ccccc2)c1 | inconclusive [inhibitor, single point] | –
CCOc1ccccc1CNC(=O)CCn1ccc2cc(S(=O)(=O)N3CCCCC3)ccc21 | active: 16.4 µM | –
CC(C)Cn1c(=O)[nH]c(=O)c2c(C(F)(F)F)cc(-c3ccccc3)nc21 | inactive | –
Cc1ccc(OCc2cc(C(=O)NCc3cc(F)ccc3C)no2)cn1 | active: 16.4 µM | –
Fc1cccc(CSc2ccc3nnc(-c4cccnc4)n3n2)c1 | inconclusive [inhibitor, single point] | –
CCC(=NCc1ccc(Cl)c(Cl)c1)c1nc(-c2ccco2)oc1O | inconclusive [inhibitor, single point] | –
Cc1ncc(CO)c(/C=N/Nc2cccc(Cl)n2)c1O | inconclusive [inhibitor, partial curve] | –
Cc1ccc(C(=O)N(CN2CCCC2=O)c2ccc(F)cc2)cc1C | inconclusive [inhibitor, single point] | –
CN(c1ccc(OCC(=O)NCc2cccnc2)cc1)S(=O)(=O)c1ccc(Cl)cc1 | inactive | –
O=C(c1cc2ncc(Br)cn2n1)N1CCOCC1 | inactive | –
Cc1cc(C)nc(NNC(=O)c2ccccc2O)n1 | inconclusive [inhibitor, single point] | –
N#Cc1ccccc1NC(=O)c1ccc(-c2ccccc2Cl)o1 | inconclusive [inhibitor, single point] | –
COc1ccc(OC)c(NC2c3ccccc3C(=O)N2Cc2ccc3c(c2)OCO3)c1 (stereo not given) | inconclusive [inhibitor, single point] | –
Cc1cc(-c2ccccc2)nc(N/N=C/c2ccc(O)cc2)n1 | active: 11.6 µM | –

SMILES | Potency | activity change, negative = growth inhibition
O=C(NCCCc1ccccc1)c1cccc(NC(=O)C2CCCCC2)c1 | inactive | –
Cc1ccc(-c2cc3c(N4CCN(c5cc(C)ccc5C)CC4)nccn3n2)cc1 | active: 23.1 µM | –
Cc1ccc(S(=O)(=O)Cc2ccc(C(=O)NCc3ccc4c(c3)OCO4)o2)cc1 | inconclusive [inhibitor, single point] | –
O=C(O)CSc1cc(C(F)(F)F)nc(-c2ccccn2)n1 | inactive | –
FC(F)(F)c1ccc(/C=N/NC(=S)NC2CCCCC2)cc1 | inconclusive [inhibitor, single point] | –
CC(=O)N1c2c(cc(Br)cc2S(=O)(=O)N2CCN(c3ccccc3)CC2)CC1C (stereo not given) | active: 23.1 µM | –
Cc1nc(-c2ccc(NC(=O)Cc3ccccc3)cc2)cs1 | inactive | –
COc1ccccc1C(=O)Nc1c[nH]c(=O)[nH]c1=O | inconclusive [inhibitor, single point] | –
O=C(Nc1cc(=O)[nH]c(=O)[nH]1)c1cc(Cl)ccc1Cl | active: 3.26 µM | –
CCOC(=O)c1ccc(N2CC(O)=C(c3nc4ccccc4c(=O)[nH]3)C2=N)cc1 | inconclusive [inhibitor, partial curve] | –
Cc1oc(-c2ccccc2Cl)nc1CS(=O)CC(=O)NCc1ccccc1Cl (stereo not given) | inconclusive [inhibitor, single point] | –
Cc1n[nH]c(=S)c2nn(-c3ccccc3F)c(C)c12 | inactive | –
Cc1csc(NC(C)c2nc3cc(Cl)c(Cl)cc3n2CCCO)n1 (stereo not given) | inconclusive [inhibitor, single point] | –
O=C(C1CCCN(S(=O)(=O)c2ccc(Cl)cc2)C1)N(Cc1cccs1)C1CC1 (stereo not given) | inconclusive [inhibitor, single point] | –
Fc1cccc(Cc2noc(CN3CCN(C4CCc5ccccc5C4)CC3)n2)c1 (stereo not given) | inconclusive [inhibitor, single point] | –
Nc1c(Cl)cc(-c2csc(N3CCCC3c3nc4cc(Cl)c(N5CCCCC5)cc4n3CCCO)n2)cc1Cl (stereo not given) | inconclusive [inhibitor, single point] | –
COc1ccc(Cl)cc1-c1nc(SCC(=O)NC(C)C(C)C)n[nH]1 (stereo not given) | inactive | –
O=C(Nc1ccnn1C1CCN(C(=O)CCc2ccc(F)cc2)CC1)C1CCOC1 (stereo not given) | inactive | –
CCc1cc(-c2[nH]ncc2-c2ccc3c(c2)OCO3)c(O)cc1O | active: 18.4 µM | –
COc1ccccc1N(Cc1ccccc1)S(=O)(=O)c1cccc(C(=O)Nc2cc(C)ccn2)c1 | inconclusive [inhibitor, single point] | –
CC(=O)Nc1cc(-c2ccsc2)cn2c(-c3ccc(F)cc3)cnc12 | active: 16.4 µM | –
CCOC(=O)N1CCN(S(=O)(=O)c2ccc(C(=O)N(CCN(CC)CC)c3nc4c(C)cccc4s3)cc2)CC1 | inconclusive [inhibitor, single point] | –
C#CCOCCOCCOCCNc1nc(N2CCN(C(=O)CCCCCCCCCCNC(=O)[C@H]([C@@H](C)CC)n3cc(CCCCCN)nn3)CC2)nc(N2CCN(C(=O)CCCCCCCCCCNC(=O)[C@H](CO)n3cc(CCCCCN)nn3)CC2)n1 | inconclusive [inhibitor, single point] | –
Cc1cc(Cl)ccc1C(O)c1ncc(-c2ccc3ccccc3c2)[nH]1 (stereo not given) | inconclusive [inhibitor, single point] | –

SMILES | Potency | activity change, negative = growth inhibition
O=C(Nc1nnc(-c2ccc3c(c2)CCCC3)o1)c1ccccc1 | active: 5.17 µM | –
Cc1nc2scc(-c3cccs3)c2c(=O)n1-n1cccc1 | inactive | –
O=S(=O)(c1ccc(F)cc1)N(Cc1nc(-c2ccccc2)no1)C1CCCCC1 | inconclusive [inhibitor, single point] | –
CCOC(=O)C1=C(CSc2nc3ccccc3s2)NC(=O)NC1c1cc(C)ccc1C (stereo not given) | inconclusive [inhibitor, single point] | –
CCOC(=O)c1c(-c2ccncc2)csc1N | inconclusive [inhibitor, single point] | –
O=C(CCCCC(=O)NN=Cc1ccccc1O)NN=Cc1ccccc1O | active: 5.8 µM | –
CCOC(=O)c1ccc(NC(=O)COc2cccc3c(=O)n(C)ccc23)cc1 | active: 20.6 µM | –
Cc1ccc(CN(Cc2cccn2-c2nnc(N3CCCC3=O)s2)C(=O)Nc2ccc(F)cc2)cc1 | inconclusive [inhibitor, single point] | –
C#CCCOC(=O)N1C2=NC(C(=O)OC)=C(C(=O)OC)[C@@H]3N(Cc4ccccc4)c4ccccc4[C@]23C[C@H]1C(=O)OC | active: 16.4 µM | –
O=C(/C=C/c1ccccc1)N/C(=C/c1ccccc1)C(=O)Nc1ccccc1O | inactive | –
CCOc1ccc(NC(=O)N2CCC(c3ccc(C)cc3)C2)cc1 (stereo not given) | inconclusive [inhibitor, single point] | –
CCN(CC(F)(F)C(F)F)S(=O)(=O)c1ccc(NC(=O)OC)cc1 | active: 25.9 µM | –
CC1CCN(S(=O)(=O)c2ccc(C(=O)Nc3ccccc3-c3nc4ccccc4[nH]3)cc2)CC1 | inconclusive [inhibitor, single point] | –
Cc1oc(-c2ccccc2)cc1C(=O)Nc1cccc2ccccc12 | inactive | –
Cc1ccc2oc(-c3cccc(NC(=S)NC(=O)c4cccs4)c3)nc2c1 | inconclusive [inhibitor, single point] | –
O=C(COc1ccc(F)cc1)Nc1ccc(C(=O)OCc2cc(=O)n3nc(C4CC4)sc3n2)cc1 | inconclusive [inhibitor, full curve, poor fit] | –
CC(=O)Nc1ccc(NC(=O)C2Cc3c(-c4ccco4)ccnc3O2)cc1 (stereo not given) | – | inconclusive: -33.9% [inhibitor]
Cc1nc2ccccn2c1C(=O)CSc1ccc(Cl)cc1Cl | inconclusive [inhibitor, single point] | –
Cc1ccc(N(Cc2cc3ccc(C)cc3[nH]c2=O)S(=O)(=O)c2ccccc2)cc1 | inactive | –
Cc1cc(Cl)ccc1OCC(=O)N1CCC(c2nc3ccccc3o2)CC1 | inconclusive [inhibitor, single point] | –
CCN(CC)S(=O)(=O)c1ccc(C)c(NC(=O)CNc2cccc(S(=O)(=O)N3CCOCC3)c2)c1 | inactive | –
COc1ccc(NC(=O)C(=O)NCC2CCCN2S(=O)(=O)c2cccs2)cc1 (stereo not given) | active: 2.31 µM | –
